In PubChem BioAssay AID938 (National Center for Advancing Translational Sciences (NCATS), 2007):
Among all 73,000 compounds or so, about 1,800 (2.5%) were called active. About 13% were inconclusive and are not listed. Calls come from the whole dose curve; as a rule, active = well fitted activation curve with a large enough effect; inconclusive = small, poorly fitted or top-dose-only effect; inactive = no such curve, though single readings can be large or run the other way. The list shows a part of the results, in another mix than the full data.

test: qHTS Assay for Agonists of the Thyroid Stimulating Hormone Receptor: Activators of Intracellular cAMP Concentrations in Parental HEK 293; conditions: parental HEK293 CNG cAMP sensor, membrane potential fluorescence; series mostly up to 57.1 µM; activation: at the top concentration; note: nearly all actives have a fitted effect of over 55% in size; for activation: % of control where 0% means no effect
Summary of the method: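 Counterscreen for endogenous-receptor signalling: CNG-channel HEK 293 cells report cAMP rise by membrane depolarization. After 60 min dye equilibration with 100 uM RO 20-1724, compounds incubated 30 min before bottom-read fluorescence at 590 nm.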
Potency is the fitted concentration of half-maximal effect.

| SMILES | activation | Potency |
| --- | --- | --- |
| C[C@@]12CC[C@@H]3c4ccc(O)cc4CC[C@H]3[C@H]1CC[C@H]2O | inactive: -7.11% [at 25.6 µM] |  |
| CCOC(=O)c1[nH]c2ccc(F)cc2c1NC(=O)CN1CCN(C/C=C/c2ccccc2)CC1 | inactive: -96.9% |  |
| OC1CCCC1 | inactive: -19% |  |
| CCC1CCCCN1C(=O)COC(=O)c1cc2ccccc2cc1O (stereo not given) |  | active: 31.6 µM |
| COc1cccc(OC)c1-c1nnc(-c2cn(C)c3ccccc23)o1 |  | active: 20 µM |
| Cc1ccc(-c2nnc(N3CCN(C(=O)CN4CCOCC4)CC3)c3ccccc23)cc1 | inactive: 0.964% |  |
| O=C(Nc1ccccc1Oc1ccccc1)c1ccc(Br)o1 | inactive: 86.7% [at 11.4 µM] |  |
| O=C1CN(/N=C/c2ccc([N+](=O)[O-])o2)C(=O)N1 | inactive: -12.4% |  |
| O=C(c1cc(C(F)(F)F)cc(C(F)(F)F)c1)N1CCC2(CC1)CCN(c1ccccn1)CC2 |  | active: 15.8 µM |
| CC(C)C(OC(=O)c1ccco1)C(=O)NCc1ccccc1 (stereo not given) |  | active: 25.1 µM |
| C[C@@H](N)C1CCC(C(=O)Nc2ccncc2)CC1 (stereo not given in full) | inactive: -6.71% |  |
| CCCC[C@@H]1C[C@H]1C(NC(=O)c1ccccc1)c1ccc(C(F)(F)F)cc1 (stereo not given in full) |  | active: 3.16 µM |
| COC(=O)c1c(C)[nH]c(C)c1C(=O)c1ccccc1Cc1ccccc1 | inactive: 5.21% |  |
| C/C(C=O)=C/c1ccccc1 | inactive: 33.5% |  |
| C=CCn1c(C)cc(C(=O)CSc2nnc(NCc3ccccc3)s2)c1C | inactive: 49.6% |  |
| CC(=O)OC(C)C | inactive: 5.44% |  |
| NCCSSCCN | inactive: 8.16% [at 11.4 µM] |  |
| N#CCCn1c(=O)c(-c2ccccc2)nc2cnc(Nc3ccccc3)nc21 |  | active: 10 µM |
| O=C(CSc1nnc(-c2ccncc2)n1C1CCCCC1)Nc1ccccc1 | inactive: 4.69% |  |
| C#C[C@]1(O)CC[C@H]2[C@@H]3CCc4cc(O)ccc4[C@H]3CC[C@@]21C | inactive: -18.6% |  |
| CN(C)C(=O)[C@@H]1C[C@H]1[C@@H](NC(=O)OCc1ccccc1)c1ccccc1 | inactive: 12.7% |  |
| Oc1ccc(-c2nc3ccccn3c2NCc2ccc3c(c2)OCO3)cc1 | inactive: -30.6% |  |
| Cc1ccc(Cn2ccc(NC(=O)c3cc(-c4ccc5c(c4)OCO5)on3)n2)cc1 | inactive: -2.12% |  |
| Clc1ccc(-c2nnc(-c3ccccc3)o2)c(Cl)c1 |  | active: 31.6 µM |
| O=C(NCC(=O)N(Cc1ccc(F)cc1)C(C(=O)NC1CCCC1)c1ccco1)c1ccco1 (stereo not given) |  | active: 15.8 µM |
| Nc1nonc1-c1nc2ccccc2n1CC(=O)NC1CCCC1 |  | active: 6.31 µM |
| CCOC(=O)c1c(N)sc2c(O)c(Br)ccc12 | inactive: -33.6% |  |
| C=C(C)C(=O)OCCCCCC | inactive: -7.59% |  |
| CC(=O)NCCNc1nc(-c2ccc(N(C)C)cc2)nc2ccccc12 | inactive: -56.5% |  |
| COc1cc2[nH]c3c(N4CCN(c5ccc(Cl)cc5)CC4)ncnc3c2cc1OC | inactive: -38.6% |  |
